# Results as given in paper PMC6919601, “Identification of Plasmodium dipeptidyl aminopeptidase allosteric inhibitors by high throughput screening” (PLoS ONE, 2019).
# The whole screen tested about 110,000 compounds, of which about 230 (0.21%) showed an effect of 50% or more. Some of the results follow.
# Target: DPAP1 (Plasmodium falciparum, UniProt Q8IIJ9)
# Assay: primary screen, percent inhibition; read by cleavage of a fluorogenic dipeptide substrate; higher = more effect of the substance
# Parameters: species or system P. falciparum D10 trophozoite lysates; single well
# 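Note: 30 min substrate incubation versus DMSO and 10 µM JCP410 controls.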
# Chain of DPAP1 (Q8IIJ9 whole entry, looked up): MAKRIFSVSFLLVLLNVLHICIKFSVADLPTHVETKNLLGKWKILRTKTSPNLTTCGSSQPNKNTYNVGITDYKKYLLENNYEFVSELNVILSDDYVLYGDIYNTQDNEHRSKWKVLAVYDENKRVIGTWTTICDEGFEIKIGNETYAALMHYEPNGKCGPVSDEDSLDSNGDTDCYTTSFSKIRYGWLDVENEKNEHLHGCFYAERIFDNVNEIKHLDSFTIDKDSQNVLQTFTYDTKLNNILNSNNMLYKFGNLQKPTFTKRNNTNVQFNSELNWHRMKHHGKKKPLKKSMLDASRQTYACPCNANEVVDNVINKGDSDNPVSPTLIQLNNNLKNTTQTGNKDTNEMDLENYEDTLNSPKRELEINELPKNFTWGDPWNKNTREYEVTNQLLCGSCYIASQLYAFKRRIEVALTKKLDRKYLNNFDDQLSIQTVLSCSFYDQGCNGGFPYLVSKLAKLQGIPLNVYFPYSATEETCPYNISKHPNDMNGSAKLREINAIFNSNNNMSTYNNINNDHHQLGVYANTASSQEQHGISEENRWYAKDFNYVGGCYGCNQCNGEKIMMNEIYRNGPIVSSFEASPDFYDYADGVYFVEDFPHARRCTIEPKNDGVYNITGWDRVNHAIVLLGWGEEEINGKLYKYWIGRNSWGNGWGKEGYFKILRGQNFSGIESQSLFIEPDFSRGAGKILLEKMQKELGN
row,Compound,% Inhibition @ 10 uM [%]
1,CC(C)COc1ccc(C(=O)Nc2nn3c(CC(C)C)nnc3s2)cc1,0.229
2,Cc1nn(CCC(=O)NCCc2cccs2)c(=O)c2nn(-c3ccccc3)c(C)c12,-11.3
3,CCN(CC)CCCNc1ncnc2ccccc12,2.46
4,N=C1S/C(=C\c2c[nH]nc2-c2ccc(Cl)cc2)C(=O)N1c1nonc1N,5.12
5,O=[N+]([O-])c1ccc(CN2CCC(N3CCCCC3)CC2)cc1,-7.34
6,Cc1cccc(C(=O)Nc2ccc(Cl)cc2)c1,-5.41
7,COc1cc2ncc(C(=O)c3ccc(C)cc3)c(O)c2cc1OC,-3.48
8,COc1ccc(-c2nc(CSCC(=O)N(C)Cc3ccccc3)c(C)o2)cc1OC,-2.85
9,COc1ccc(-c2nc(CS(=O)(=O)CC(=O)NCCC(C)C)c(C)o2)cc1,-3.7
10,COc1ccc(C(=O)N2CCN(Cc3cccc(F)c3)CC2)cc1OC,13.7
11,COC(=O)C1=C(O)/C(=C\c2ccc(-c3cccc(C(F)(F)F)c3)o2)N=C1C,-0.85
12,CC1=CS(=O)(=O)CC1Sc1nc2ccccc2[nH]1 (centres unmarked),-2.75
13,CC1=NN(c2nc(-c3ccccc3)cc(-c3ccc(C)cc3)n2)C(=O)C1,4.42
14,CSCCC1Oc2ccc(Cl)cc2C2CC(c3cc(C)ccc3O)=NN12 (centres unmarked),-1.68
15,C=C(C)CSC1=C(C#N)C(c2ccccc2)CC(=O)N1 (centres unmarked),-2.35
16,COc1ccc(CN2CCN(C(=O)c3cccs3)CC2)cc1Br,-4.7
17,Cc1ccc(NC(=O)CSCC(=O)N2CCOCC2)cc1,6.63
18,Cc1ccc(C)c(OCC(=O)O/N=C(\N)c2ccncc2)c1,-3.06
19,COc1ccc(C2=N/C(=C\c3ccc(SC)cc3)C(=O)O2)cc1,-2.72
20,CCOc1ccc(N2CC(C(=O)Nc3ccc(Br)c(OC)c3)CC2=O)cc1 (centres unmarked),-1.88
21,CC(=O)N1C(c2ccc([N+](=O)[O-])cc2)SC[C@H]1C(=O)O (some centres unmarked),-2.51
22,COc1ccc2cc(-c3nc(-c4ccccc4F)no3)c(=O)oc2c1,5.8
23,Cc1cccc(C(=O)NC2CCCCC2NC(=O)c2cccc(C)c2)c1 (centres unmarked),3.65
24,CC1CCCCN1CCNC(=O)Cn1ccc2cc(S(=O)(=O)N3CCCCC3)ccc21 (centres unmarked),1.94
25,CCc1ccc(CNC(=O)CSCc2ccccc2Cl)cc1,3.79
26,COCCCn1c(=N)c(C#N)cc2c(=O)n3ccccc3nc21,-5.14

row,Compound,% Inhibition @ 10 uM [%]
1,CC(C)(C)C(=O)Nc1ccc(-c2cnc(-c3ccc(NC(=O)C(C)(C)C)cc3)nc2)cc1,4.8
2,CCc1nnc(N2CCN(c3ncnc4c3cnn4Cc3ccc(Cl)cc3Cl)CC2)s1,0.51
3,Cc1cc(C)nc(SCC(=O)Nc2cc(C(F)(F)F)ccc2Cl)n1,-1.51
4,COc1ccc(C(=O)Nc2ccc(N3CCN(S(C)(=O)=O)CC3)cc2)cc1,-6.02
5,CCn1ccnc1P(=O)(O)c1ccccc1,-1.29
6,CC(NC(=O)C1CCC(CNS(=O)(=O)c2ccc(Br)s2)CC1)c1ccccc1 (centres unmarked),-0.0508
7,CCC1(CC)OC(c2ccc3c(c2)OCO3)Nc2ccccc21 (centres unmarked),-5.49
8,CCOC(=O)c1ccc(NC(=O)c2c(C(=O)O)cccc2[N+](=O)[O-])cc1,-3.98
9,CC1=C(C(=O)Nc2ccccc2C)C(c2ccc(C(C)C)cc2)n2nc(CCCO)nc2N1 (centres unmarked),-3.04
10,CCOC(=O)c1c(NC(=O)c2cc3ccccc3o2)sc2c1CCC2,3.67
11,Cc1cccn2c(=O)c(/C=C(\C#N)C(=O)NCc3ccco3)c(Oc3ccc(Cl)cc3)nc12,2
12,CC(NC(=O)c1ccccc1C(=O)O)C12CC3CC(CC(C3)C1)C2 (centres unmarked),1.16
13,Cc1sc2nc3c4ccccc4c(NCCCO)nn3c(=O)c2c1C,15
14,COc1cc(OC)c(OC)cc1CNC(C)C1COc2ccccc2O1 (centres unmarked),5.3
15,COc1c(S)cnn(-c2cccc(Cl)c2)c1=O,6.72
16,CCC(C)(C)C(=O)Nc1ccc(C(C)=O)cc1,4.56
17,O=C(CNC(=S)N(Cc1ccccc1F)C1CCCCC1)NCCCN1CCOCC1,1.27
18,Cc1ccc(-c2nn(CCC(=O)N3CCCC3)c(=O)c3ccccc23)cc1,-4.84
19,Oc1cccc(-c2nc(-c3ccccc3)c(-c3ccccc3)[nH]2)c1,3.32
20,COc1ccccc1Nc1nc(N)c2ccccc2n1,-2.29
21,NS(=O)(=O)c1ccc(CCNC(=O)CSCc2ccc(F)cc2)cc1,3.79
22,CC(=O)N1CCN(Cc2cccc(Oc3ccc(Cl)cc3)c2)CC1,2.1
23,COC(=O)c1ccc(C2CC(=O)N3C(=C2C#N)SCC3(O)c2ccc(Cl)cc2)cc1 (centres unmarked),4.8
24,Cc1cc(O)c(C2=NCCSC(c3ccc(Cl)c(Cl)c3)C2)c(=O)o1 (centres unmarked),1.66
25,COc1ccc(CC(=O)ONC(=O)c2ccc(Cl)cc2)cc1OC,6.08
26,N#CC1=C(N)Oc2c(c(O)nc3ccccc23)C1c1cccc(C(F)(F)F)c1 (centres unmarked),1.26

row,Compound,% Inhibition @ 10 uM [%]
1,CCO/C=N\c1cc(C)c(C#N)c2nc3ccccc3n12,-0.413
2,CCOC(=O)C1CCN(Cc2ccc(-c3ccccc3)cc2)CC1,-1.86
3,Cc1cc(OCC(=O)Nc2cccc(Cl)c2C)cc(C)c1Cl,-2.18
4,COC(=O)C1=C(C)NC(=O)CC1c1ccc(C(F)(F)F)cc1 (centres unmarked),3.61
5,Cc1ccccc1NC(=O)c1c(NC(=O)CCC(=O)O)sc2c1CCCC2,17.3
6,CCn1c(-c2ccccc2OC)c(Cl)nc(Cl)c1=O,-1.98
7,O=C(O)CC(NC(=O)CCc1ccccc1)c1ccc2c(c1)OCO2 (centres unmarked),-3.07
8,CCCOC1C=CC(Oc2nc(NCC)cc(N(C)C)n2)=NN1 (centres unmarked),-4.62
9,COc1ccc(NC(=O)CCCOc2ccc(Cl)cc2Cl)cc1,2.98
10,CC1CCN(C(=O)Cn2ncc3c4ccccc4n(C)c3c2=O)CC1,-1.92
11,COC(=O)Nc1ccccc1C(=O)Nc1cccc(C)c1,-2.76
12,O=C(Nc1cc(NC(=O)c2ccc(Br)o2)ccc1Cl)c1ccccc1,3.24
13,COc1ccc(OC)c(-c2noc(N3CCN(C4CCCCC4)CC3)n2)c1,4.91
14,Cc1c(C(=O)N2CCCCC2)sc(NC(=O)c2ccc(Cl)cc2)c1C#N,7.17
15,C#CC1(OC(=O)c2ccccc2)CC(C)N(C)CC1C (centres unmarked),-4.35
16,O=C(O)c1ccc2c(c1)C(=O)N(c1ccc(Oc3ccccc3)cc1)C2=O,3.25
17,CN1CCN(c2ccc(NC(=O)CCC(=O)O)cc2)CC1,-3.92
18,COc1ccc2c(Sc3ccccc3)c(C(=O)NCC3CCCO3)[nH]c2c1 (centres unmarked),0.0811
19,CC(C)c1c(O)nc2c(c1O)C(=O)CC(C)(C)C2,-0.25
20,CC1(C)CC2(C)CC3=C([C@H](CO)C(C)(C)C3)C(CO)(C1)C2 (some centres unmarked),-3.26
21,CCn1c(C)nc2cc(-c3ccccc3)ccc21,-4.96
22,O=S(=O)(NC1CCCCC1)c1cccc2nsnc12,1.7
23,COc1ccccc1/C=C/C1=NC(=C\c2cccnc2)/C(=O)O1,19.3
24,C#CCSc1nc2c(cc1C#N)CCCCC2,1
25,CC1CCC(C(=O)NC(Cc2ccccc2)C(=O)NCc2ccccn2)CC1 (centres unmarked),-13.6
26,CN1C(C(=O)N2CCN(C(=O)C(C)(C)C)CC2)=CC(c2ccc(F)cc2)=NS1(=O)=O,0.655

row,Compound,% Inhibition @ 10 uM [%]
1,COc1cc(OC)cc(C(=O)Nc2ccc3c(c2)oc2ccccc23)c1,-4.91
2,Cc1[nH]nc2c1C(c1ccc(-c3ccc(Cl)cc3)o1)C(C#N)=C(N)O2 (centres unmarked),2.51
3,CC1=C(C(=O)Nc2nc3ccccc3s2)C(c2ccccc2)C2=C(O)CCCC2=N1 (centres unmarked),-0.661
4,CC1CC(=O)C2=C(C1)OC(N)=C(C#N)C2c1cccs1 (centres unmarked),1.96
5,CCSc1nc(N2CCOCC2)c2c(c1C#N)CC(C)(C)SC2,-0.968
6,CCCN1CCN(C(=O)c2cccc3c2C(=O)N(Cc2cccnc2)C3)CC1,-0.719
7,CC1CCCC(NCC(C)(C)CN(C)C)C1 (centres unmarked),-1.56
8,CC(C)(C)c1cc(C(=O)CSc2nncn2-c2ccccc2)cc(C(C)(C)C)c1O,3.7
9,CN1CCCC1CCNC1C2CC3CC(C2)CC1C3 (centres unmarked),-4.14
10,Cc1nn(-c2ccccc2)c2c1C1(C(=O)Nc3ccccc31)C(C#N)=C(N)O2 (centres unmarked),-3.77
11,COC(=O)c1ccc(C2NC(=O)c3[nH]nc(-c4ccc(C)cc4)c32)cc1 (centres unmarked),-9.43
12,CCOc1cc2c(cc1OCC)C(C(=O)O)C(c1cc(OC)c(OC)cc1OC)N(C)C2=O (centres unmarked),0.231
13,Cc1cccc(NC(=O)CCCCC(=O)Nc2cccc(C)c2)c1,3.92
14,CC(NC(=O)C(=O)NCCN(C)C)C(c1cccs1)N1CCOCC1 (centres unmarked),3.96
15,O=C1C(=O)N(CCN2CCCCC2)c2ccccc21,2.92
16,CCOc1ccc(CCNC(=O)C(CC)n2nc(C)c3c(C)n(-c4ccc(C)cc4)nc3c2=O)cc1 (centres unmarked),-2.49
17,O=C(O)c1cc(S(=O)(=O)N2CCCC2)ccc1Cl,-1.62
18,CC(CCc1ccccc1)N1CCCN(C)CC1 (centres unmarked),-3.6
19,CCOP(=O)(CCC(=O)OC)OCC,-4.01
20,O=c1c2ccccc2nc(-c2ccccc2)n1-c1ccncc1,1.67
21,CN1C2=C(C(=O)CCC2)C(c2cc(Br)ccc2OCC(=O)O)C2=C1CCCC2=O,3.49
22,O=C(Nc1ccc2c(c1)ncn2-c1ccccc1)c1ccco1,1.83
23,OC1CCN(Cc2ccc(F)cc2)CC1,3.16
